Molecular target: hepatitis C virus RNA dependant polymerase (NS5B) (Hepatitis C virus genotype 1b, UniProt P26663)
Assay: Inhibition of NS5B RNA dependent RNA polymerase activity (SPA, oligo-U/polyA)
Protocol: The compounds of the invention were tested for inhibitory activity against the hepatitis C virus RNA dependant polymerase (NS5B), according to the following assay:
The substrates are: • a 12 nucleotide RNA oligo-uridylate (or oligo-uridine-monophosphate) (oligo-U) primer modified with biotin at the free 5′C position; • a complementary poly-adenylate (or adenosine monophosphate) (polyA) template of heterogeneous length (1000-10000 nucleotides); and UTP-[5,6 ^3H].
Polymerase activity is measured as the incorporation of UMP-[5,6 ^3H] into the chain elongated from the oligo-U primer. The ^3H-labelled reaction product is captured by SPA-beads coated with streptavidin and quantified on the TopCount.
The enzyme can be stored at −20° C. in storage buffer (see below).
The biotinylated oligo-U12 primer, the Poly(A) template, and the UTP-[5,6 ^3H] were dissolved in water. The solutions can be stored at −80° C.
Just prior to assay, test compounds of the invention were dissolved in assay buffer containing 15% DMSO.
Just prior to assay, the substrates were mixed in assay buffer to the following concentrations:
Just prior to assay, the RNA polymerase (NS5B) cocktail was prepared in assay buffer to the following specifications:
The assay reaction was performed in a Microfluor™ white “U” bottom plate (Dynatech™ #7105), by successively adding: • 20 μL of test compound cocktail; • 20 μL of substrate cocktail; and • 20 μL of enzyme cocktail (final [NS5B] in assay=10 nM; final [n-dodecyl maltoside] in assay=0.33%; final DMSO in assay=5%).
The reaction was incubated at room temperature for 1.5 hours. STOP solution (20 μL; 0.5 M EDTA, 150 ng/μl tRNA) was added, followed by 30 μl streptavidin coated PVT beads (8 mg/ml in 20 mM Tris-HCl, pH 7.5, 25 mM KCl, 0.025% NaN3). The plate was then shaken for 30 minutes. A solution of CsCl was added (70 μL, 5 M), to bring the CsCl concentration to 1.95 M. The mixture was then allowed to stand for 1 hour. The beads were then counted on a Hewlett Packard TopCount™ instrument using the following protocol: • Data mode: counts per minute • Scintillator: liq/plast • Energy range: low • Efficiency mode: normal • Region: 0-50 • Count delay: 5 minutes • Count time: 1 minute • Expected results: 6000 cpm/well • 200 cpm/well no enzyme control.
Based on the results at ten different concentrations of test compound, standard concentration-% inhibition curves were plotted and analysed to determine IC50's for the compounds of the invention. For some compounds, the IC50 was estimated from two points.

Compound	IC50 [nM]
Cc1cc(=O)oc2cc(NC(=O)C3(NC(=O)c4ccc5c(c4)nc(-c4ccoc4)n5C4CCCCC4)CCCC3)ccc12 [compound 1082]	500 to 5000
C/C(=C\c1ccc(NC(=O)C2(NC(=O)c3ccc4c(c3)nc(-c3ccoc3)n4C3CCCCC3)CCCC2)cc1)C(=O)O [compound 1083]	< 500
CCn1c(C(=O)O)cc2cc(NC(=O)C3(NC(=O)c4ccc5c(c4)nc(-c4ccoc4)n5C4CCCCC4)CCCC3)ccc21 [compound 1085]	< 500
C#CCn1c(C(=O)O)cc2cc(NC(=O)C3(NC(=O)c4ccc5c(c4)nc(-c4ccoc4)n5C4CCCCC4)CCCC3)ccc21 [compound 1086]	< 500
C[C@@H](NC(=O)c1ccc2c(c1)nc(-c1ccoc1)n2C1CCCCC1)C(=O)Nc1ccc2c(c1)cc(C(=O)O)n2C [compound 1087]	< 500
Cc1cc(NC(=O)C2(NC(=O)c3ccc4c(c3)nc(-c3ccoc3)n4C3CCCCC3)CCCC2)ccc1/C=C/C(=O)O [compound 1088]	< 500
CC(C)(C)OC(=O)N1CCC(NC(=O)c2ccc3c(c2)nc(-c2ccoc2)n3C2CCCCC2)(C(=O)Nc2ccc(/C=C/C(=O)O)cc2)CC1 [compound 1089]	< 500
O=C(NC1(C(=O)Nc2ccc(-c3nc(C(=O)O)cs3)cc2)CCCC1)c1ccc2c(c1)nc(-c1ccoc1)n2C1CCCCC1 [compound 1090]	< 500
Cc1nc(C(=O)O)sc1-c1ccc(NC(=O)C2(NC(=O)c3ccc4c(c3)nc(-c3ccoc3)n4C3CCCCC3)CCCC2)cc1 [compound 1091]	500 to 5000
CC(NC(=O)c1ccc2c(c1)nc(-c1ccoc1)n2C1CCCCC1)C(=O)NC(C)C(=O)Nc1ccc(CCCC(=O)O)cc1 (stereo not drawn) [compound 1092]	5000 to 25000
CC(C)(NC(=O)c1ccc2c(c1)nc(-c1ccoc1)n2C1CCCCC1)C(=O)Nc1ccc(/C=C/C(=O)O)cc1 [compound 1093]	< 500
O=C(O)/C=C/c1ccc(NC(=O)C2(NC(=O)c3ccc4c(c3)nc(-c3ccoc3)n4C3CCCCC3)CCC2)cc1 [compound 1094]	< 500
C[C@@H](NC(=O)c1ccc2c(c1)nc(-c1ccoc1)n2C1CCCCC1)C(=O)Nc1ccc2oc(C(=O)O)cc2c1 [compound 1096]	< 500
C[C@@H](NC(=O)c1ccc2c(c1)nc(-c1ccoc1)n2C1CCCCC1)C(=O)Nc1ccc2[nH]c(C(=O)O)cc2c1 [compound 1097]	< 500
O=C(NC1(C(=O)Nc2ccc3[nH]c(C(=O)O)cc3c2)CCCC1)c1ccc2c(c1)nc(-c1ccoc1)n2C1CCCCC1 [compound 1098]	< 500
Cc1c(C(=O)O)sc2ccc(NC(=O)C3(NC(=O)c4ccc5c(c4)nc(-c4ccoc4)n5C4CCCCC4)CCCC3)cc12 [compound 1099]	< 500
O=C(O)/C=C/c1ccc(NC(=O)C2(NC(=O)c3ccc4c(c3)nc(-c3ccoc3)n4C3CCCCC3)CCNCC2)cc1 [compound 1100]	< 500
Cn1c(C(=O)O)cc2cc(NC(=O)C3(NC(=O)c4ccc5c(c4)nc(-c4ccoc4)n5C4CCCCC4)CCNCC3)ccc21 [compound 1101]	< 500
CN1CCC(NC(=O)c2ccc3c(c2)nc(-c2ccoc2)n3C2CCCCC2)(C(=O)Nc2ccc3c(c2)cc(C(=O)O)n3C)CC1 [compound 1102]	< 500
CC(C)(NC(=O)c1ccc2c(c1)nc(-c1ccoc1)n2C1CCCCC1)C(=O)Nc1ccc(-c2csc(C(=O)O)n2)cc1 [compound 1103]	< 500
Cn1c(C(=O)O)cc2cc(NC(=O)C3(NC(=O)c4ccc5c(c4)nc(-c4ccoc4)n5C4CCCCC4)CCCNC3)ccc21 (stereo not drawn) [compound 1104]	500 to 5000
CCN1CCC(NC(=O)c2ccc3c(c2)nc(-c2ccoc2)n3C2CCCCC2)(C(=O)Nc2ccc(-c3nc(C(=O)O)cs3)cc2)CC1 [compound 1108]	< 500
CCN1CCC(NC(=O)c2ccc3c(c2)nc(-c2ccoc2)n3C2CCCCC2)(C(=O)Nc2ccc(-c3nc(C(N)=O)cs3)cc2)CC1 [compound 1109]	< 500
O=C(NC1(C(=O)Nc2ccc3[nH]c(C(=O)O)c(I)c3c2)CCNCC1)c1ccc2c(c1)nc(-c1ccoc1)n2C1CCCCC1 [compound 1110]	< 500
Nc1ncc(-c2ccc(NC(=O)C3(NC(=O)c4ccc5c(c4)nc(-c4ccoc4)n5C4CCCCC4)CCCC3)cc2)cn1 [compound 1111]	500 to 5000
O=C(O)/C=C/c1ccc(NC(=O)C2(NC(=O)c3ccc4c(c3)nc(-c3ccsc3)n4C3CCCCC3)CCCC2)cc1 [compound 2001]	< 500

Compound	IC50 [nM]
C[C@@H](NC(=O)c1ccc2c(c1)nc(-c1ccccn1)n2C1CCCCC1)C(=O)Nc1ccc(/C=C/C(=O)O)cc1 [compound 2002]	< 500
C[C@@H](NC(=O)c1ccc2c(c1)nc(-c1ccccc1)n2C1CCCCC1)C(=O)Nc1ccc(/C=C/C(=O)O)cc1 [compound 2003]	500 to 5000
C[C@@H](NC(=O)c1ccc2c(c1)nc(-c1ccc[nH]1)n2C1CCCCC1)C(=O)Nc1ccc(/C=C/C(=O)O)cc1 [compound 2004]	< 500
O=C(O)/C=C/c1ccc(NC(=O)C2(NC(=O)c3ccc4c(c3)nc(-c3ccccn3)n4C3CCCCC3)CCCC2)cc1 [compound 2005]	< 500
O=C(O)/C=C/c1ccc(NC(=O)C2(NC(=O)c3ccc4c(c3)nc(-c3ccccc3)n4C3CCCCC3)CCCC2)cc1 [compound 2006]	500 to 5000
O=C(O)/C=C/c1ccc(NC(=O)C2(NC(=O)c3ccc4c(c3)nc(-c3ccc[nH]3)n4C3CCCCC3)CCCC2)cc1 [compound 2007]	< 500
Cn1cccc1-c1nc2cc(C(=O)NC3(C(=O)Nc4ccc(/C=C/C(=O)O)cc4)CCCC3)ccc2n1C1CCCC1 [compound 2008]	500 to 5000
O=C(O)/C=C/c1ccc(NC(=O)C2(NC(=O)c3ccc4c(c3)nc(-c3ccco3)n4C3CCCC3)CCCC2)cc1 [compound 2009]	500 to 5000
O=C(O)/C=C/c1ccc(NC(=O)C2(NC(=O)c3ccc4c(c3)nc(-c3ccccc3)n4C3CCCC3)CCCC2)cc1 [compound 2010]	500 to 5000
O=C(O)/C=C/c1ccc(NC(=O)C2(NC(=O)c3ccc4c(c3)nc(-c3cccs3)n4C3CCCC3)CCCC2)cc1 [compound 2011]	500 to 5000
O=C(O)/C=C/c1ccc(NC(=O)C2(NC(=O)c3ccc4c(c3)nc(-c3ccccn3)n4C3CCCC3)CCCC2)cc1 [compound 2012]	500 to 5000
O=C(O)/C=C/c1ccc(NC(=O)C2(NC(=O)c3ccc4c(c3)nc(-c3ccoc3)n4C3CCCC3)CCCC2)cc1 [compound 2013]	< 500
O=C(O)/C=C/c1ccc(NC(=O)C2(NC(=O)c3ccc4c(c3)nc(-c3ccc[nH]3)n4C3CCCC3)CCCC2)cc1 [compound 2014]	500 to 5000
O=C(O)/C=C/c1ccc(NC(=O)C2(NC(=O)c3ccc4c(c3)nc(-c3cccc5c3OCO5)n4C3CCCC3)CCCC2)cc1 [compound 2015]	500 to 5000
Cn1cccc1-c1nc2cc(C(=O)NC3(C(=O)Nc4ccc(/C=C/C(=O)O)cc4)CCCC3)ccc2n1C1CCC1 [compound 2024]	500 to 5000
O=C(O)/C=C/c1ccc(NC(=O)C2(NC(=O)c3ccc4c(c3)nc(-c3ccco3)n4C3CCC3)CCCC2)cc1 [compound 2025]	500 to 5000
O=C(O)/C=C/c1ccc(NC(=O)C2(NC(=O)c3ccc4c(c3)nc(-c3ccccc3)n4C3CCC3)CCCC2)cc1 [compound 2026]	500 to 5000
O=C(O)/C=C/c1ccc(NC(=O)C2(NC(=O)c3ccc4c(c3)nc(-c3cccs3)n4C3CCC3)CCCC2)cc1 [compound 2027]	500 to 5000
O=C(O)/C=C/c1ccc(NC(=O)C2(NC(=O)c3ccc4c(c3)nc(-c3ccccn3)n4C3CCC3)CCCC2)cc1 [compound 2028]	500 to 5000
O=C(O)/C=C/c1ccc(NC(=O)C2(NC(=O)c3ccc4c(c3)nc(-c3ccoc3)n4C3CCC3)CCCC2)cc1 [compound 2029]	500 to 5000
O=C(O)/C=C/c1ccc(NC(=O)C2(NC(=O)c3ccc4c(c3)nc(-c3ccc[nH]3)n4C3CCC3)CCCC2)cc1 [compound 2030]	500 to 5000
O=C(O)/C=C/c1ccc(NC(=O)C2(NC(=O)c3ccc4c(c3)nc(-c3cccc5c3OCO5)n4C3CCC3)CCCC2)cc1 [compound 2031]	500 to 5000
CC1CCCC(C)C1n1c(-c2cccc3c2OCO3)nc2cc(C(=O)NC3(C(=O)Nc4ccc(C=CC(=O)O)cc4)CCCC3)ccc21 (stereo not drawn) [compound 2039]	500 to 5000
CC1CCCCC1n1c(-c2cccs2)nc2cc(C(=O)NC3(C(=O)Nc4ccc(C=CC(=O)O)cc4)CCCC3)ccc21 (stereo not drawn) [compound 2043]	500 to 5000
CC1CCCCC1n1c(-c2ccoc2)nc2cc(C(=O)NC3(C(=O)Nc4ccc(C=CC(=O)O)cc4)CCCC3)ccc21 (stereo not drawn) [compound 2045]	500 to 5000

— patent US6841566B2, “Viral polymerase inhibitors” (Boehringer Ingelheim, Ltd., priority 2001, dated 2005)
